Assay results from the RNAGym collection of RNA variant scans (doi:10.7554/elife.90254).
Read counts are not given, so values of variants with three or more changes are uncertain.

B1: LINE1-mini (parent)
chain: GGCAGAGCUCAACACAGCGUGGCAAAGUGGCUGUGGCUAGACUGCC

Variants of: B1
Assay: self-cleavage, relative activity (ratio to wild type); higher = more cleavage; in vitro, sequencing; the parent is a self-cleaving ribozyme

Row | Variant | self-cleavage
1 | GGCAGAGCUCAUCACAGCGUGGCAAAGUGGCUGUGGCUACACUACC [A12U G40C G44A] | 0
2 | GGCUGAGCUCAACACGGCGUGGCAAAGUGGCUGUGGCCAGACUGCC [A4U A16G U38C] | 0.14
3 | GGAAGAGCUCAACACAGCGUGGGAAAGUGGCUGUGGCUAGACCGCC [C3A C23G U43C] | 0.25
4 | GGCAGAGCUCAACACACUGUGGCAAAGUGUCUGUGGCUAUAUUGCC [G17C C18U G30U G40U C42U] | 0.02
5 | GGCAGAGCUCAACUCAGCGUGGCUAAGUGGCUGUGGCUAAACUGCU [A14U A24U G40A C46U] | 0.05
6 | GGUAGAGCUCAACACGGCGUGCCAAGGUGGCUGUGGCUAGACUGCC [C3U A16G G22C A26G] | 0.02
7 | GGCAUAGGUCAACACAGCGUGGCAAAGUGGCUGCGGCUAGACUGCC [G5U C8G U34C] | 0.08
8 | GGCAGAGCUCAACUCCGCGUGGCAAGGUGGCUGUGGCUCGAGUGUC [A14U A16C A26G A39C C42G C45U] | 0.03
9 | GUCAGAGCUCAACACAGCGUAGAAAAGUGGCUGUGGCUAAACUGCC [G2U G21A C23A G40A] | 0.02
10 | GGCAUAGCUCAACUCAGCGUGGCCAAGUGGCUGUGGCUAAACUGCC [G5U A14U A24C G40A] | 0.04
11 | GGAAGAGAUCAACACAGCGUGGCAAAGAGGCUGUGGCUAGACUGCC [C3A C8A U28A] | 0.31
12 | GGCAGAGCUCAACACAGCGUGGCAAAGGGGCUGUGACCUGACUGCC [U28G G36A U38C A39U] | 0.03
13 | GCCAGCGCUCAACACAACGUGCCAAAGUGGCUUUGGCUAGACUGCC [G2C A6C G17A G22C G33U] | 0.02
14 | GGAAGAGCUCAACAGAGCUUGGCAAACUGGAUGUGGCUAGACUGCC [C3A C15G G19U G27C C31A] | 0.01
15 | GGCAGAGCUCCACACAGCGUGGCAAAAUGGCUGUGGCUAGACGGCC [A11C G27A U43G] | 0
16 | GGCAGAGCUCAACACAGCGUGGCAACGUGGCUGUAGUUAGACUGCC [A26C G35A C37U] | 0.04
17 | GGCAGAGAUCAACUCAGCGUGGCAAAGUGGCUGUGGCUAUACUGCC [C8A A14U G40U] | 0.08
18 | GGCAGAGCUAAACACAGCGUGUCCAAGUGGCUGUGGCUAGACUGCC [C10A G22U A24C] | 0.04
19 | GGCAGAGCUCAACACAGCGUGGCACAGUGGCUGUGUCUAAACUGCC [A25C G36U G40A] | 0.03

Row | Variant | self-cleavage
20 | GGCAGAGCUCAAUACAGCGUGGCAAAGUGGCUGUGGGUAGAAUGCC [C13U C37G C42A] | 0.06
21 | GGCAGAGCUCAACACAGCGUGGCAAAUUAGCUGUGGUUAGACUGCC [G27U G29A C37U] | 0.02
22 | GGCAGAGCUCAACACAGCGUGGCAAAGUGGCCGAGACUGGACUGCC [U32C U34A G36A A39G] | 0.04
23 | GGCAGAGCUCAAAACAUCCUAGCAAAGUGGCUGUGGCUAGACUGCC [C13A G17U G19C G21A] | 0.05
24 | GGCAGAGCUCAACACAGCGUGGCCACGUGGCUGAGGCAAGGCUGCC [A24C A26C U34A U38A A41G] | 0.13
25 | GGCAGAGCUCAACACAGCGUGGAAAACUGGCUUUCGCUAGAGUACC [C23A G27C G33U G35C C42G G44A] | 0.03
26 | GGCAGAGCUCAACACAGGGGGGCAAAGAUGCUGUGGCUAGACUGCC [C18G U20G U28A G29U] | 1.24
27 | GGCAGAGCUCAAUACACCGUGGCAAAGUGGCUGUGGCUAGUCUGCC [C13U G17C A41U] | 0.03
28 | GACAGAGCUCAACACAGCGUGGCACAGUGGCUGAGGCUAGACUGGC [G2A A25C U34A C45G] | 0.12
29 | GGCAGAGAUCAACAAAGCGUGGCAAAGUGGCAGUGGCUAGACUGCC [C8A C15A U32A] | 0.06
30 | GCCAGAGCUAAACACAGCCUGGAAAAGUGGCUGUGGCUAGACUGCC [G2C C10A G19C C23A] | 0.01
31 | GGCAGAGCUCACCACAGCGUGGCAAAGUGGCUGUGGAGAUACUGCU [A12C C37A U38G G40U C46U] | 0
32 | GACAAAGCUCAACGCAGCGUGGCUAAGUGGCUGUUGCUAGACUGCC [G2A G5A A14G A24U G35U] | 2.35
33 | GGAAGAGCUCAACACAGCAUGGGAAAGUGGCUGUGGCUAGACUGCC [C3A G19A C23G] | 0.09
34 | GGCAGAGCUCAACACAGCGUGGCAAGGUCGCUGUUGCUAGACUGCC [A26G G29C G35U] | 0.03
35 | GGCCGUGCUCAACACAGCGUGGGCAAGUGGCUGUGGCUAGAAUGCC [A4C A6U C23G A24C C42A] | 0.02
36 | GGCAGAGCUCGACACAGCGUGCCAAAGUGGCUGUGGCAAGACUGCC [A11G G22C U38A] | 0.04
37 | UGCAGAGCUCAACACAGCGUGGCAAGGUGGCAGUGGGUAGACUGCC [G1U A26G U32A C37G] | 0.05
38 | GGCAGAGCUCAACACAGUAUGGCAAAGUGGCUGUGUCUAGACUGCC [C18U G19A G36U] | 0.1

Row | Variant | self-cleavage
39 | GGCUGAGCUCAACACAGCGUAGCAAGGUGGCUGUGGCUAGACUGCA [A4U G21A A26G C46A] | 0.16
40 | GACAGAGCUCAACACAGCCUGGCAAAGUGGCUGUUGCUGGACUGCC [G2A G19C G35U A39G] | 0.23
41 | GGCAGAGCUCAACACAGCGUGGCAAAGUGGUUGUAGCUAGACUUCC [C31U G35A G44U] | 0.04
42 | GGCAGAGCUCAACCCAGCCUUGCAAAGUGGCUCUGGCUAGAGUGCC [A14C G19C G21U G33C C42G] | 0.02
43 | GGCAGGGUUGAACACAGCGUGGCAAAGUGGCUGUCGCUAGACUACC [A6G C8U C10G G35C G44A] | 0.01
44 | GGGAGAGCUCAACACAGUGUGGCAAAGUGUCUGUGGCUAGACUGCC [C3G C18U G30U] | 0.07
45 | GGCCGAGCUCAACACAGCGUGGCAAAUUGGCAGUGGCUAGACAGGC [A4C G27U U32A U43A C45G] | 0.02
46 | GGAAGAGCUCAACACAGCGCGGCAAAGUGGUUGUGGCUAGACUGCC [C3A U20C C31U] | 0.13
47 | GGCAGACCUCAAAGCAGCAGGGCAAAGUGGCUAUGGCUAGACUGCC [G7C C13A A14G G19A U20G G33A] | 0.03
48 | GACAGAUCUCAACACAGCGUGGCAAAGUGGCUGUUGCUAGACUGCC [G2A G7U G35U] | 0.91
49 | GGAAGAGCUCAACACAGCGUAGCAAAGUCGCUGUGGCUAGAUUGCC [C3A G21A G29C C42U] | 0.14
50 | GACAGAGCUCAACAUAGUGUGGCAAAGUGGCUGUGGCGAGACUGCC [G2A C15U C18U U38G] | 0.08
51 | GGCAGAGCUCAACACAGCGUGGCCAAGUGGCGGAGGCUAGACUGCC [A24C U32G U34A] | 0.03
52 | GACAGAGCUCAACGCAGCGUGACAAACUGGGUGUGGGUACACUGCC [G2A A14G G22A G27C C31G C37G G40C] | 0.03
53 | GACAGAGCUCAACACAGCGUGGCAAAGUAGCUUUGGCUAGACUACC [G2A G29A G33U G44A] | 0.11
54 | GGCAGAGCCCAACACAGCGUGGCACAGUGACUGUGGCUAGACUGCG [U9C A25C G30A C46G] | 0.02
55 | GGCAGAGCUAAACAAUGCGUGGCAAAGUGGCUGUGGCUAGACUGCC [C10A C15A A16U] | 0.04
56 | GGCAGAUUCCAACACAGCGUGACAAAGUGGCUGUGGCUAGACUGCC [G7U C8U U9C G22A] | 0.1
